We go through 17 molecules from patent US20210130346A1, “Bromodomain Inhibitors” (AbbVie Inc., priority 2017, published 2021).

pKi: −log10 of the molar value.

This assay addresses BRD4 (BDII_E352-M457) (Homo sapiens, UniProt O60885). Put plainly: TR-FRET bromodomain binding assay, BRD4 second bromodomain (BDII). The settings on record: mean Ki; 4 nM His tagged BRD4 (BDII_E352-M457), 30 nM Alexa647 probe; Ki calculated from IC50, probe Kd and probe concentration. On the procedure:
A time-resolved fluorescence resonance energy transfer (TR-FRET) assay was used to determine the affinities of compounds of the Examples listed in Table 1 for each bromodomain of BRD4. […] An Alexa647-labeled BET-inhibitor was used as the fluorescent probe in the assay.
Compound dilution series were prepared in DMSO via an approximately 3-fold serial dilution. Compound dilutions were added directly into white, low-volume assay plates (Perkin Elmer Proxiplate 384 Plus# 6008280) using a Labcyte Echo in conjunction with Labcyte Access and Thermo Multidrop CombinL robotics. Compounds were then suspended in eight microliters (μL) of assay buffer (20 mM Sodium Phosphate, pH 6.0, 50 mM NaCl, 1 mM Ethylenediaminetetraacetic acid disodium salt dihydrate, 0.01% Triton X-100, 1 mM DL-Dithiothreitol) containing His-tagged bromodomain, Europium-conjugated anti-His antibody (Invitrogen PV5596) and Alexa-647-conjugated probe.
After a one-hour equilibration at room temperature, TR-FRET ratios were determined using an Envision multilabel plate reader (Ex 340, Em 495/520).
TR-FRET data were normalized to the means of 24 no-compound controls (“high”) and 8 controls containing 1 μM un-labeled probe (“low”). Percent inhibition was plotted as a function of compound concentration and the data were fit with the 4 parameter logistic equation to obtain IC50s. Inhibition constants (Ki) were calculated from the IC50s, probe Kd and probe concentration.
Turning to `CCNC(=O)c1cc2c([C@@H]3C[C@@]34C(=O)N(C)c3ccccc34)cn(C)c(=O)c2[nH]1` (racemic) [Example 1, rac-N-ethyl-6-methyl-4-[(1R,2S)-1′-methyl-2′-oxo-1′,2′-dihydrospiro[cyclopropane-1,3′-indol]-2-yl]-7-oxo-6,7-dihydro-1H-pyrrolo[2,3-c]pyridine-2-carboxamide], the negative logarithm of the Ki (pKi) was 8.04.
To `CN1C(=O)[C@@]2(C[C@H]2c2cn(C)c(=O)c3[nH]c(C(=O)NC4CC4)cc23)c2ccccc21` (racemic) [Example 2, rac-N-cyclopropyl-6-methyl-4-[(1R,2S)-1′-methyl-2′-oxo-1′,2′-dihydrospiro[cyclopropane-1,3′-indol]-2-yl]-7-oxo-6,7-dihydro-1H-pyrrolo[2,3-c]pyridine-2-carboxamide] belongs 8.32.
Then `CN1C(=O)[C@@]2(C[C@H]2c2cn(C)c(=O)c3[nH]c(C(=O)NC4CC(F)(F)C4)cc23)c2ccccc21` (racemic) [Example 5, rac-N-(3,3-difluorocyclobutyl)-6-methyl-4-[(1R,2S)-1′-methyl-2′-oxo-1′,2′-dihydrospiro[cyclopropane-1,3′-indol]-2-yl]-7-oxo-6,7-dihydro-1H-pyrrolo[2,3-c]pyridine-2-carboxamide], with 7.66.
To `CN1C(=O)[C@@]2(C[C@H]2c2cn(C)c(=O)c3[nH]c(C(=O)Nc4ccccc4)cc23)c2ccccc21` (racemic) [Example 8, rac-6-methyl-4-[(1R,2S)-1′-methyl-2′-oxo-1′,2′-dihydrospiro[cyclopropane-1,3′-indol]-2-yl]-7-oxo-N-phenyl-6,7-dihydro-1H-pyrrolo[2,3-c]pyridine-2-carboxamide] belongs 8.27.
As to `COc1ccc(NC(=O)c2cc3c([C@@H]4C[C@@]45C(=O)N(C)c4ccccc45)cn(C)c(=O)c3[nH]2)cc1` (racemic) [Example 9, rac-N-(4-methoxyphenyl)-6-methyl-4-[(1R,2S)-1′-methyl-2′-oxo-1′,2′-dihydrospiro[cyclopropane-1,3′-indol]-2-yl]-7-oxo-6,7-dihydro-1H-pyrrolo[2,3-c]pyridine-2-carboxamide], the pKi was 8.24.
On to `CN1C(=O)[C@@]2(C[C@H]2c2cn(C)c(=O)c3[nH]c(C(=O)Nc4cccc(CO)c4)cc23)c2ccccc21` (racemic) [Example 10, rac-N-[3-(hydroxymethyl)phenyl]-6-methyl-4-[(1R,2S)-1′-methyl-2′-oxo-1′,2′-dihydrospiro[cyclopropane-1,3′-indol]-2-yl]-7-oxo-6,7-dihydro-1H-pyrrolo[2,3-c]pyridine-2-carboxamide], for which the pKi is 8.46.
Then `CN1C(=O)[C@@]2(C[C@H]2c2cn(C)c(=O)c3[nH]c(C(=O)NC4CC4)cc23)c2ccc(F)cc21` (racemic) [Example 11, rac-N-cyclopropyl-4-[(1R,2S)-6′-fluoro-1′-methyl-2′-oxo-1′,2′-dihydrospiro[cyclopropane-1,3′-indol]-2-yl]-6-methyl-7-oxo-6,7-dihydro-1H-pyrrolo[2,3-c]pyridine-2-carboxamide], with 7.50; and `CN1C(=O)[C@@]2(C[C@H]2c2cn(C)c(=O)c3[nH]c(C(=O)NC4CC4)cc23)c2ccc(Cl)cc21` (racemic) [Example 12, rac-4-[(1R,2S)-6′-chloro-1′-methyl-2′-oxo-1′,2′-dihydrospiro[cyclopropane-1,3′-indol]-2-yl]-N-cyclopropyl-6-methyl-7-oxo-6,7-dihydro-1H-pyrrolo[2,3-c]pyridine-2-carboxamide], with 8.44.
Then `Cc1ccc2c(c1)N(C)C(=O)[C@@]21C[C@H]1c1cn(C)c(=O)c2[nH]c(C(=O)NC3CC3)cc12` (racemic) [Example 13, rac-N-cyclopropyl-4-[(1R,2S)-1′,6′-dimethyl-2′-oxo-1′,2′-dihydrospiro[cyclopropane-1,3′-indol]-2-yl]-6-methyl-7-oxo-6,7-dihydro-1H-pyrrolo[2,3-c]pyridine-2-carboxamide], with 8.25.
To `COc1ccc2c(c1)N(C)C(=O)[C@@]21C[C@H]1c1cn(C)c(=O)c2[nH]c(C(=O)NC3CC3)cc12` (racemic) [Example 14, rac-N-cyclopropyl-4-[(1R,2S)-6′-methoxy-1′-methyl-2′-oxo-1′,2′-dihydrospiro[cyclopropane-1,3′-indol]-2-yl]-6-methyl-7-oxo-6,7-dihydro-1H-pyrrolo[2,3-c]pyridine-2-carboxamide] belongs 7.99; to `CN1C(=O)[C@@]2(C[C@H]2c2cn(C)c(=O)c3[nH]c(C(=O)NC4CC4)cc23)c2ccc(OC(F)(F)F)cc21` (racemic) [Example 15, rac-N-cyclopropyl-6-methyl-4-[(1R,2S)-1′-methyl-2′-oxo-6′-(trifluoromethoxy)-1′,2′-dihydrospiro[cyclopropane-1,3′-indol]-2-yl]-7-oxo-6,7-dihydro-1H-pyrrolo[2,3-c]pyridine-2-carboxamide], 8.15.
In the case of `CN1C(=O)[C@@]2(C[C@H]2c2cn(C)c(=O)c3[nH]c(C(=O)NC4CC4)cc23)c2cc(F)ccc21` (racemic) [Example 16, rac-N-cyclopropyl-4-[(1R,2S)-5′-fluoro-1′-methyl-2′-oxo-1′,2′-dihydrospiro[cyclopropane-1,3′-indol]-2-yl]-6-methyl-7-oxo-6,7-dihydro-1H-pyrrolo[2,3-c]pyridine-2-carboxamide], the negative logarithm of the Ki (pKi) is 8.17.
To `Cn1cc([C@@H]2C[C@@]23C(=O)Nc2ccccc23)c2cc(C(=O)NC3CC3)[nH]c2c1=O` (racemic) [Example 19, rac-N-cyclopropyl-6-methyl-7-oxo-4-[(1R,2S)-2′-oxo-1′,2′-dihydrospiro[cyclopropane-1,3′-indol]-2-yl]-6,7-dihydro-1H-pyrrolo[2,3-c]pyridine-2-carboxamide] belongs 7.82; to `CCN1C(=O)[C@@]2(C[C@H]2c2cn(C)c(=O)c3[nH]c(C(=O)NC4CC4)cc23)c2ccccc21` (racemic) [Example 22, rac-N-cyclopropyl-4-[(1R,2S)-1′-ethyl-2′-oxo-1′,2′-dihydrospiro[cyclopropane-1,3′-indol]-2-yl]-6-methyl-7-oxo-6,7-dihydro-1H-pyrrolo[2,3-c]pyridine-2-carboxamide], 8.45.
To `Cn1cc(C2CC23C(=O)N(CC(F)(F)F)c2ccccc23)c2cc(C(=O)NC3CC3)[nH]c2c1=O` (racemic) [Example 23, rac-N-cyclopropyl-6-methyl-7-oxo-4-[(1R,2S)-2′-oxo-′-(2,2,2-trifluoroethyl)-1′,2′-dihydrospiro[cyclopropane-1,3′-indol]-2-yl]-6,7-dihydro-1H-pyrrolo[2,3-c]pyridine-2-carboxamide] belongs 8.06; to `Cn1cc([C@@H]2C[C@@]23C(=O)N(C2CC2)c2ccccc23)c2cc(C(=O)NC3CC3)[nH]c2c1=O` (racemic) [Example 26, rac-N-cyclopropyl-4-[(1R,2S)-1′-cyclopropyl-2′-oxo-1′,2′-dihydrospiro[cyclopropane-1,3′-indol]-2-yl]-6-methyl-7-oxo-6,7-dihydro-1H-pyrrolo[2,3-c]pyridine-2-carboxamide], 8.24.
Then `COCCN1C(=O)[C@@]2(C[C@H]2c2cn(C)c(=O)c3[nH]c(C(=O)NC4CC4)cc23)c2ccccc21` (racemic) [Example 27, rac-N-cyclopropyl-4-[(1R,2S)-1′-(2-methoxyethyl)-2′-oxo-1′,2′-dihydrospiro[cyclopropane-1,3′-indol]-2-yl]-6-methyl-7-oxo-6,7-dihydro-1H-pyrrolo[2,3-c]pyridine-2-carboxamide], with 6.58.
